In PMC5048754:
These are yes or no findings as the source states them, for the method shown. In cells and extracts the contact can be indirect. Some results given as binding are weak or reduced against the parent protein; the word gives no strength.

Protein sequences, listed by entry. Tags and fused reporters are not part of them. Lines headed by an entry give the natural chain unless they say otherwise; changes in a name come on top. Chains listed by the source or under a name are the forms on record and can include a tag or linker. Residues count along the entry.
UniProt Q15691: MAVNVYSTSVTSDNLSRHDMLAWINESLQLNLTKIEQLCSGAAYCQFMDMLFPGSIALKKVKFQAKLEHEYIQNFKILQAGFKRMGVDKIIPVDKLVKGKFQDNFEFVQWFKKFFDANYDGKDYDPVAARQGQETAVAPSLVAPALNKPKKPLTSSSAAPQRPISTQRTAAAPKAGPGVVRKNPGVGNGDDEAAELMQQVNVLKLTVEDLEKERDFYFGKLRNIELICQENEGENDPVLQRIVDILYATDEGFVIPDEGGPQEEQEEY
GST-tagged calponin-homology (CH) domain of EB1 (1-115): residues 1-115 of Q15691
GST-tagged EB-homology domain (EBH) of EB1 (209-268): residues 209-268 of Q15691

How the values were obtained:
[1] = target: endogenous apoptosis signal-regulating kinase 1 (ASK1) (human (endogenous in 293 T)) (UniProt Q99683); experiment: co-IP; lysates of 293 T cells (transfected with HA-ASK1, GFP-EB1 or Flag-EB1, or untransfected), antibody-coated agarose beads, 4 °C for 2 h, immunoblotting
[2] = target: HA-tagged apoptosis signal-regulating kinase 1 (HA-ASK1) (UniProt Q99683); experiment: as above
[3] = target: GST-tagged EB-homology domain (EBH) of EB1 (209-268) (UniProt Q15691); experiment: pull-down; GST pulldown from cells (293 T named for Figure 4h) transfected with GST-tagged forms of EB1 and HA-ASK1 or ASK1 domains, glutathione-coated agarose beads, 4 °C for 2 h, immunoblotting
[4] = target: HA-tagged C-terminal region of ASK1 (941-1374) (UniProt Q99683); experiment: co-IP; cells transfected with Flag-EB1 and different forms of ASK1 tagged with HA; immunoblotting (Figure 4g)
[5] = target: HA-tagged kinase domain of ASK1 (649-940) (UniProt Q99683); experiment: as above
[6] = target: GST-tagged calponin-homology (CH) domain of EB1 (1-115) (UniProt Q15691); experiment: pull-down; GST pulldown from cells (293 T named for Figure 4h) transfected with GST-tagged forms of EB1 and HA-ASK1 or ASK1 domains, glutathione-coated agarose beads, 4 °C for 2 h, immunoblotting

Substance	binding [1]	binding [2]	also measured
endogenous end-binding protein 1 (EB1) (from UniProt Q15691 1-268)	binds	binds	
HA-tagged C-terminal region of ASK1 (941-1374) (from UniProt Q99683 941-1374) (domain or fragment)			binding [3]: binds weakly
p150^glued (from UniProt Q14203-1 1-1278)		no binding	
Flag-EB1 (from UniProt Q15691 1-268)	binds		binding [4]: binds; binding [5]: binds
GFP-EB1 (from UniProt Q15691 1-268)	binds		
HA-tagged kinase domain of ASK1 (649-940) (from UniProt Q99683 649-940) (domain or fragment)			binding [6]: binds
